Results as given in the supplement of paper PMC8728848.
The list shows a part of the results.

Columns and labels:
Test in all cases: glycan array binding signal (z-score within array); higher = stronger binding
Settings in all cases: glycan notation: IUPAC condensed, linker removed
Gal6S(b1-4)Glc6S = molecular target: Gal6S(b1-4)Glc6S
Method in brief: (§1)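 The binding signal is a Z-score computed within each array and averaged over linkers. Arrays of the same protein sequence at different concentrations or buffers were also averaged together. Data originate from 3228 arrays in the Consortium for Functional Glycomics database, kept only where the protein sequence was available.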

Gal6S(b1-4)GlcNAc = molecular target: Gal6S(b1-4)GlcNAc
Method in brief: as §1

Gal6S(b1-4)GlcNAc6S = molecular target: Gal6S(b1-4)GlcNAc6S
Method in brief: as §1

GalNAc(a1-3)Gal = molecular target: GalNAc(a1-3)Gal
Method in brief: as §1

GalNAc(a1-3)GalNAc = molecular target: GalNAc(a1-3)GalNAc
Method in brief: as §1

[1] = molecular target: GalNAc(a1-3)GalNAc(b1-3)Gal(a1-4)Gal(b1-4)Glc
Method in brief: as §1

[2] = molecular target: GalNAc(a1-3)GalNAc(b1-3)Gal(a1-4)Gal(b1-4)GlcNAc
Method in brief: as §1

GalNAc(b1-3)Gal = molecular target: GalNAc(b1-3)Gal
Method in brief: as §1

[3] = molecular target: GalNAc(b1-3)Gal(a1-4)Gal(b1-4)GlcNAc
Method in brief: as §1

[4] = molecular target: GalNAc(b1-3)Gal(a1-4)Gal(b1-4)GlcNAc(b1-3)Gal(b1-4)Glc
Method in brief: as §1

[5] = molecular target: GalNAc(b1-3)Gal(a1-6)Gal(b1-4)Glc
Method in brief: as §1

GalNAc(b1-3)GalNAc = molecular target: GalNAc(b1-3)GalNAc
Method in brief: as §1

GalNAc(b1-3)GlcNAc = molecular target: GalNAc(b1-3)GlcNAc
Method in brief: as §1

GalNAc(b1-4)Gal(b1-4)Glc = molecular target: GalNAc(b1-4)Gal(b1-4)Glc
Method in brief: as §1

GalNAc(b1-4)GlcNAc = molecular target: GalNAc(b1-4)GlcNAc
Method in brief: as §1

[6] = molecular target: GalNAc(b1-4)GlcNAc(b1-2)Man
Method in brief: as §1

[7] = molecular target: GalNAc(b1-4)GlcNAc(b1-2)Man(a1-3)[GalNAc(b1-4)GlcNAc(b1-2)Man(a1-6)]Man(b1-4)GlcNAc(b1-4)GlcNAc
Method in brief: as §1

[8] = molecular target: GalNAc(b1-4)GlcNAc(b1-3)GalNAc(b1-4)GlcNAc
Method in brief: as §1

GalNAc(b1-4)GlcNAc6S = molecular target: GalNAc(b1-4)GlcNAc6S
Method in brief: as §1

GalNAc(b1-6)GalNAc = molecular target: GalNAc(b1-6)GalNAc
Method in brief: as §1

GalNAc3S(b1-4)GlcNAc = molecular target: GalNAc3S(b1-4)GlcNAc
Method in brief: as §1

GalNAc3S(b1-4)GlcNAc3S = molecular target: GalNAc3S(b1-4)GlcNAc3S
Method in brief: as §1

[9] = molecular target: GalNAc3S(b1-4)[Fuc(a1-3)]GlcNAc
Method in brief: as §1

GalNAc4S6S(b1-4)GlcNAc = molecular target: GalNAc4S6S(b1-4)GlcNAc
Method in brief: as §1

GalNAc6S(b1-4)GlcNAc = molecular target: GalNAc6S(b1-4)GlcNAc
Method in brief: as §1

Glc(a1-4)Glc = molecular target: Glc(a1-4)Glc
Method in brief: as §1

[10] = molecular target: Glc(a1-4)Glc(a1-4)Glc(a1-4)Glc
Method in brief: as §1

Glc(a1-6)Glc(a1-6)Glc = molecular target: Glc(a1-6)Glc(a1-6)Glc
Method in brief: as §1

[11] = molecular target: Glc(a1-6)Glc(a1-6)Glc(a1-6)Glc
Method in brief: as §1

Glc(b1-4)Glc = molecular target: Glc(b1-4)Glc
Method in brief: as §1

Glc(b1-6)Glc = molecular target: Glc(b1-6)Glc
Method in brief: as §1

GlcA(b1-3)Gal = molecular target: GlcA(b1-3)Gal
Method in brief: as §1

GlcA(b1-3)GlcNAc = molecular target: GlcA(b1-3)GlcNAc
Method in brief: as §1

GlcA(b1-6)Gal = molecular target: GlcA(b1-6)Gal
Method in brief: as §1

[12] = molecular target: GlcA3S(b1-3)Gal(b1-4)GlcNAc(b1-2)Man
Method in brief: as §1

[13] = molecular target: GlcA3S(b1-3)Gal(b1-4)GlcNAc(b1-3)Gal(b1-4)Glc
Method in brief: as §1

[14] = molecular target: GlcNAc(a1-3)Gal(b1-4)GlcNAc
Method in brief: as §1

[15] = molecular target: GlcNAc(a1-4)Gal(b1-3)GlcNAc
Method in brief: as §1

[16] = molecular target: GlcNAc(a1-4)Gal(b1-4)GalNAc
Method in brief: as §1

[17] = molecular target: GlcNAc(a1-4)Gal(b1-4)GlcNAc
Method in brief: as §1

[18] = molecular target: GlcNAc(a1-4)Gal(b1-4)GlcNAc(b1-3)Gal(b1-4)Glc
Method in brief: as §1

[19] = molecular target: GlcNAc(a1-4)Gal(b1-4)GlcNAc(b1-3)Gal(b1-4)GlcNAc
Method in brief: as §1

[20] = molecular target: GlcNAc(a1-4)Gal(b1-4)GlcNAc(b1-3)Gal(b1-4)GlcNAc(b1-3)Gal(b1-4)GlcNAc
Method in brief: as §1

[21] = molecular target: GlcNAc(a1-4)Gal(b1-4)GlcNAc(b1-3)Gal(b1-4)[Fuc(a1-3)]GlcNAc(b1-3)Gal(b1-4)[Fuc(a1-3)]GlcNAc
Method in brief: as §1

[22] = molecular target: GlcNAc(a1-6)Gal(b1-4)GlcNAc
Method in brief: as §1

B1: Cohesin-hLangerin (Homo sapiens) (protein)
chain: LDDLDAVRIKVDTVNAKPGDTVRIPVRFSGIPSKGIANCDFVYSYDPNVLEIIEIEPGDIIVDPNPDKSFDTAVYPDRKIIVFLFAEDSGTGAYAITKDGVFATIVAKVKEGAPNGLSVIKFVEVGGFANNDLVEQKTQFFDGGANVGDTTEPATPTTPVTTPTTTDDLDAASYPRFMGTISDVKTNVQLLKGRVDNISTLDSEIKKNSDGMEAAGVQIQMVNESLGYVRSQFLKLKTSVEKANAQIQILTRSWEEVSTLNAQIPELKSDLEKASALNTKIRALQGSLENMSKLLKRQNDILQVVSQGWKYFKGNFYYFSLIPKTWYSAEQFCVSRNSHLTSVTSESEQEFLYKTAGGLIYWIGLTKAGMEGDWSWVDDTPFNKVQSARFWIPGEPNNAGNNEHCGNIKAPSLQAWNDAPCDKTFLFICKRPYVPSEPHHHHHH
- glycan array binding signal (z-score) (Gal6S(b1-4)Glc6S): 4
- glycan array binding signal (z-score) (Gal6S(b1-4)GlcNAc): 3.76
- glycan array binding signal (z-score) (Gal6S(b1-4)GlcNAc6S): 4.85
- glycan array binding signal (z-score) (GalNAc(a1-3)Gal): -0.36
- glycan array binding signal (z-score) (GalNAc(a1-3)GalNAc): -0.361
- glycan array binding signal (z-score) [1]: -0.438
- glycan array binding signal (z-score) [2]: -0.244
- glycan array binding signal (z-score) (GalNAc(b1-3)Gal): -0.151
- glycan array binding signal (z-score) [3]: -0.058
- glycan array binding signal (z-score) [4]: -0.036
- glycan array binding signal (z-score) [5]: -0.252
- glycan array binding signal (z-score) (GalNAc(b1-3)GalNAc): -0.366
- glycan array binding signal (z-score) (GalNAc(b1-3)GlcNAc): -0.31
- glycan array binding signal (z-score) (GalNAc(b1-4)Gal(b1-4)Glc): -0.296
- glycan array binding signal (z-score) (GalNAc(b1-4)GlcNAc): -0.176
- glycan array binding signal (z-score) [6]: -0.36
- glycan array binding signal (z-score) [7]: -0.354
- glycan array binding signal (z-score) [8]: -0.088
- glycan array binding signal (z-score) (GalNAc(b1-4)GlcNAc6S): -0.167
- glycan array binding signal (z-score) (GalNAc(b1-6)GalNAc): -0.351
- glycan array binding signal (z-score) (GalNAc3S(b1-4)GlcNAc): -0.444
- glycan array binding signal (z-score) (GalNAc3S(b1-4)GlcNAc3S): -0.439
- glycan array binding signal (z-score) [9]: -0.407
- glycan array binding signal (z-score) (GalNAc4S6S(b1-4)GlcNAc): -0.446
- glycan array binding signal (z-score) (GalNAc6S(b1-4)GlcNAc): -0.348
- glycan array binding signal (z-score) (Glc(a1-4)Glc): -0.208
- glycan array binding signal (z-score) [10]: -0.205
- glycan array binding signal (z-score) (Glc(a1-6)Glc(a1-6)Glc): -0.345
- glycan array binding signal (z-score) [11]: -0.266
- glycan array binding signal (z-score) (Glc(b1-4)Glc): -0.092
- glycan array binding signal (z-score) (Glc(b1-6)Glc): -0.292
- glycan array binding signal (z-score) (GlcA(b1-3)Gal): -0.385
- glycan array binding signal (z-score) (GlcA(b1-3)GlcNAc): -0.013
- glycan array binding signal (z-score) (GlcA(b1-6)Gal): -0.349
- glycan array binding signal (z-score) [12]: -0.429
- glycan array binding signal (z-score) [13]: -0.423
- glycan array binding signal (z-score) [14]: -0.385
- glycan array binding signal (z-score) [15]: -0.427
- glycan array binding signal (z-score) [16]: -0.401
- glycan array binding signal (z-score) [17]: -0.402
- glycan array binding signal (z-score) [18]: -0.403
- glycan array binding signal (z-score) [19]: -0.411
- glycan array binding signal (z-score) [20]: -0.395
- glycan array binding signal (z-score) [21]: -0.278
- glycan array binding signal (z-score) [22]: -0.434
